Assay results published in publication PMC9600989.
These are yes or no findings as the source states them, for the method shown. In cells and extracts the contact can be indirect. Some results given as binding are weak or reduced against the parent protein; the word gives no strength. For part of these data: Where a sequence is shown, tags or fusion partners need not be part of it.

The chains behind the UniProt entries cited, without tags or fusion partners. Where a name states a change or a piece, a line headed by the entry shows the natural chain unless it says otherwise. A line that says so, or that is headed by a name, gives the form on record, which may keep a tag or linker.
UniProt P97438: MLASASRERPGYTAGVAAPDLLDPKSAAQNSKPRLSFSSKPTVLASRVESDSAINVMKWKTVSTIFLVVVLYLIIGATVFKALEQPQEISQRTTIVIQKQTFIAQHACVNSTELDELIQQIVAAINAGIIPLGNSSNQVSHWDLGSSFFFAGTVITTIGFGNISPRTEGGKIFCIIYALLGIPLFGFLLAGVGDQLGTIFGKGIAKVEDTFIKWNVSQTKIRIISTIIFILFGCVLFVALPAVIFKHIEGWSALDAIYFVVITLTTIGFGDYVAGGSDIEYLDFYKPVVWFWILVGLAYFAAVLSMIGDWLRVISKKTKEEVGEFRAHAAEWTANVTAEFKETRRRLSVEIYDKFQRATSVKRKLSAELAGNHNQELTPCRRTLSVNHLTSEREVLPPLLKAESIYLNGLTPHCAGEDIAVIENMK
VC-TREK1 isotype 2 (C-terminal portion of Venus fused to TREK1 isotype 2) (P97438, form named): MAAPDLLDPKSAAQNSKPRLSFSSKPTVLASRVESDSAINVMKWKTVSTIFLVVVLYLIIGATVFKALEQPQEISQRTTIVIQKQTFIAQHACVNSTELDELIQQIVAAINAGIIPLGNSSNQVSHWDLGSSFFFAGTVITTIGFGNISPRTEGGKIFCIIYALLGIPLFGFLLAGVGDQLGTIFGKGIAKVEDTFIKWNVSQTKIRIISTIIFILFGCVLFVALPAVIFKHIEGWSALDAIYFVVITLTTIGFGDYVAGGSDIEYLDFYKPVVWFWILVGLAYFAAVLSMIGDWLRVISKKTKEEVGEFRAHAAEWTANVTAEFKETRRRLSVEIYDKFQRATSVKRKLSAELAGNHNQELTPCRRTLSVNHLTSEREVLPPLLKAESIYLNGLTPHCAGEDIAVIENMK

Assays:
[1] = target: T1, β-coat protein (β-COP), endogenous in cultured mouse astrocytes (mouse (endogenous in cultured astrocytes)) (UniProt Q9JIF7); assay: co-IP; endogenous proteins, cultured astrocyte lysate in RIPA buffer, IP overnight at 4 °C with anti-TREK1 or anti-β-COP, Protein G agarose, blot for the other protein
T1 sequence: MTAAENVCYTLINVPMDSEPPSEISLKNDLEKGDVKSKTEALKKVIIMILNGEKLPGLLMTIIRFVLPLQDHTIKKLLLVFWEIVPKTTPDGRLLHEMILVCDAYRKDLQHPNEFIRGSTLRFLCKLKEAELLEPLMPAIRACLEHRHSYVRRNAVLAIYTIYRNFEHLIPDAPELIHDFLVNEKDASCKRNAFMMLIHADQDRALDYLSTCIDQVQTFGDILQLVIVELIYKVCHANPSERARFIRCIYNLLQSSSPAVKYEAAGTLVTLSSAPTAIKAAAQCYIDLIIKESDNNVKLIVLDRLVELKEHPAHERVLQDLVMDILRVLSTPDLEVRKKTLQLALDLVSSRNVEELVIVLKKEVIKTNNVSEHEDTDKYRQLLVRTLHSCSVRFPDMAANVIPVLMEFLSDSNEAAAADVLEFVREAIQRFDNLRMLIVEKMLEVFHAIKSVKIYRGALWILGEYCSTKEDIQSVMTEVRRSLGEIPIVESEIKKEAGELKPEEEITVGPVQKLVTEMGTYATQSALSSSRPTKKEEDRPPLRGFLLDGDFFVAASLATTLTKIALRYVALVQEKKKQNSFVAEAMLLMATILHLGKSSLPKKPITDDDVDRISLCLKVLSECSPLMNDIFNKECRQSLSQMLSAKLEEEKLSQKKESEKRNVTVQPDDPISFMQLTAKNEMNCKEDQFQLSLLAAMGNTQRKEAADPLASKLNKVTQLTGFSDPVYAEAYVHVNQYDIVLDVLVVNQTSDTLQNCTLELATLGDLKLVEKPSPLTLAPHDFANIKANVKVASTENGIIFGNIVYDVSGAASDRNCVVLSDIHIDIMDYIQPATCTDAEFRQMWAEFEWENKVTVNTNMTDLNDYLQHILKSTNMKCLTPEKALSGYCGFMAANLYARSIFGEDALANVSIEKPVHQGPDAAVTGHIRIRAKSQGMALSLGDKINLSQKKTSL

[2] = target: TWIK-related K+ channel 1 (TREK1), endogenous in cultured mouse astrocytes (mouse (endogenous in cultured astrocytes)) (UniProt P97438); assay: as above
[3] = target: TWIK-related K+ channel 1 (TREK1), endogenous in cultured mouse astrocytes (mouse (endogenous in cultured astrocytes)) (UniProt P97438); assay: proximity ligation; Duolink PLA in fixed cultured mouse astrocytes with anti-TREK1 and anti-β-COP; anti-β-COP alone as control
[4] = target: Flag-tagged TREK1 isotype 2 (mouse) (UniProt P97438); assay: co-IP; HEK293T cells co-transfected with Flag-tagged channel and GFP-β-COP, RIPA lysate, IP with anti-Flag, blot with anti-GFP
[5] = target: T2, Flag-tagged TWIK1 (mouse) (UniProt O08581); assay: as above
T2 sequence: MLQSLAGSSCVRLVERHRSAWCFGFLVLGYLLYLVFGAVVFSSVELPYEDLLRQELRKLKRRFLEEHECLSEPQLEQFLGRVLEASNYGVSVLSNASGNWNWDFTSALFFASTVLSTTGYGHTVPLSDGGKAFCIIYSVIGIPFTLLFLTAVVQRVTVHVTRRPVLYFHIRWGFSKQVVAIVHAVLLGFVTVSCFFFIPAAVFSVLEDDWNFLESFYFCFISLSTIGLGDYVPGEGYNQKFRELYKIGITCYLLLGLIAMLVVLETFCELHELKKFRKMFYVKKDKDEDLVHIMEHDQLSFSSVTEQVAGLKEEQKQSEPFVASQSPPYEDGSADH

[6] = target: VC-TREK1 isotype 2 (C-terminal portion of Venus fused to TREK1 isotype 2) (mouse) (UniProt P97438); assay: split reporter; BiFC with split Venus (VN173, VC155) in co-transfected HEK293T cells, fixed 24 h after transfection, confocal microscopy

In the case of “TWIK-related K+ channel 1 (TREK1), endogenous in cultured mouse astrocytes (from UniProt P97438 1-426)”, the binding [1] is reported as “binds”.

B1: β-coat protein (β-COP), endogenous in cultured mouse astrocytes (protein, UniProt Q9JIF7 1-953)
chain: T1 sequence
In the case of B1, the binding [2] is reported as “binds” and the binding [3] is reported as “binds”.

B2: GFP-tagged β-COP (protein, UniProt Q9JIF7 1-953)
chain: T1 sequence
B2 was tested, and the binding [4] was “binds” and the binding [5] was “no binding”.

B3: VN-β-COP (N-terminal portion of Venus fused to β-COP) (protein, UniProt Q9JIF7 1-953)
chain: T1 sequence
In the case of B3, the binding [6] is reported as “binds”.
